Test results taken from PubChem BioAssay AID1030 (National Center for Advancing Translational Sciences (NCATS), 2008).
The whole screen tested about 220,000 compounds, of which about 16,000 (7.3%) were called active. Inconclusive results, whose numbers are uncertain, are shown with a selection of clear calls. Calls follow the shape of the dose curve; as a rule, active = well fitted inhibition curve with a large enough effect (not every such curve was filed as active); inconclusive = small, poorly fitted or top-dose-only effect, or another doubt; inactive = no such curve, though single readings can be large or run the other way. Potencies of inconclusive entries are left out as doubtful fits.

Each compound was assayed against Aldehyde dehydrogenase 1A1 (Homo sapiens) (UniProt P00352) (assay: qHTS Assay for Inhibitors of Aldehyde Dehydrogenase 1 (ALDH1A1)). Settings: Purified ALDH1A1, NADH fluorescence, propionaldehyde substrate; series mostly up to 75.3 µM; activity, negative = inhibition: at the top concentration.
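For activity, negative = inhibition in this document: plate controls were no enzyme wells and a reference inhibitor.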
Potency is read from the fitted curve at half-maximal effect; tags tell the direction and shape of the fitted curve.

UniProt P00352, sequence (P00352 whole entry, looked up): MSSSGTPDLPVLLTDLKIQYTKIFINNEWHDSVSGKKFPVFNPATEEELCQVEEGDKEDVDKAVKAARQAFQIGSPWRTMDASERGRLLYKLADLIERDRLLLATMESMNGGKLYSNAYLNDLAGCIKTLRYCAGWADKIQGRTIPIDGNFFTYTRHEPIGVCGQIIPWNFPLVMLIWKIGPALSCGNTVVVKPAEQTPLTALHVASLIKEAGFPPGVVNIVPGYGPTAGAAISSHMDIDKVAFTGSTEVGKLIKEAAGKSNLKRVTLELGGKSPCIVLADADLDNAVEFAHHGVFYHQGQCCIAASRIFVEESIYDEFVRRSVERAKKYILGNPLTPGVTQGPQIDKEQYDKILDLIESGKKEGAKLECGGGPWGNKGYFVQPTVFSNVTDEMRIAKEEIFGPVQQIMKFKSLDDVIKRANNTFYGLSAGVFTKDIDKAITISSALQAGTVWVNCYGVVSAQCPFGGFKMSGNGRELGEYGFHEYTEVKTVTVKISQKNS

Question: `O=C(COc1ccc(Cl)cc1)Nc1ccc2oc(-c3ccncc3)nc2c1` was tested. Which Potency did it give?
Answer: Its Potency is inconclusive [inhibitor, single point].

Question: Which Potency does the source give for `Cc1ccc(-c2nn(-c3ccccc3)cc2/C=C(\C#N)c2cccc(C#N)c2)o1` here?
Answer: The Potency was active: 22.4 µM.

Question: `CCCNC(=O)c1sc2c(c1C(=O)Nc1ccccn1)CCCC2` was tested. Which Potency did it give?
Answer: Its Potency is inconclusive [inhibitor, partial curve, poor fit].

Question: How did the Potency turn out when `CCOC(=O)c1sc2nc(CSc3ccccc3)nc(N3CCCN(C)CC3)c2c1C` was run?
Answer: Its Potency is active: 28.2 µM.

Question: For `COc1ccc(-c2noc(-c3ccccc3C(=O)Nc3cccc(OC)c3)n2)cc1`, which Potency is on record?
Answer: The Potency was inconclusive [inhibitor, single point].

Question: Which Potency does the source give for `CCN(CC)Cc1c(O)c(Cl)cc2c(C)cc(=O)oc12` here?
Answer: Its Potency is inconclusive [inhibitor, partial curve].

Question: `Cc1ccc(NC(=O)c2cnc(N3CCN(c4ccccn4)CC3)c3ccccc23)c(Br)c1` was tested. Which Potency did it give?
Answer: The Potency was inconclusive [inhibitor, partial curve].

Question: With `O=C(NN1C(=O)C2CC=C(Cl)CC2C1=O)c1ccncc1` (stereo not drawn) as the compound, how does the “activity, negative = inhibition” value read?
Answer: The value was inactive: 5.43%.

Question: Which “activity, negative = inhibition” value does the source give for `COC(=O)c1sccc1NC(=O)c1sccc1C` here?
Answer: Its value is inactive: -3.7%.

Question: Which Potency does the source give for `COc1ccc(-c2nnc(NC(=O)Cc3ccccc3)s2)c(OC)c1` here?
Answer: The Potency was inconclusive [inhibitor, single point].

Question: How did the Potency turn out when `COc1ccc(CCC(=O)N2CCN(S(=O)(=O)c3ccc4ccccc4c3)CC2)cc1` was run?
Answer: The Potency was active: 14.1 µM.

Question: With `CC(=O)C1=C(O)C(=O)N(Cc2cccnc2)C1c1ccc(Cl)cc1Cl` (stereo not drawn) as the compound, how does the Potency read?
Answer: Its Potency is inconclusive [inhibitor, single point].

Question: For `CCOc1ccc(C(C)=O)cc1CSc1nnnn1-c1ccc(O)cc1`, which Potency is on record?
Answer: The Potency was inconclusive [inhibitor, single point].

Question: With `CS(=O)(=O)c1ccc2nc(NC(=O)Cc3ccccc3)sc2c1` as the compound, how does the Potency read?
Answer: The Potency was inconclusive [inhibitor, single point].

Question: `C/C=C/c1ccc(OCCCCN2C(=O)NC(C)(C)C2=O)c(OC)c1` was tested. Which Potency did it give?
Answer: Its Potency is inconclusive [inhibitor, single point].

Question: For `O=c1c2c(ncn2C2CCCC2)n(Cc2ccccc2)c(=O)n1CCOc1ccc(Br)cc1`, which “activity, negative = inhibition” value is on record?
Answer: Its value is inactive: 1.49%.

Question: Which Potency does the source give for `Cc1nn(-c2ccccn2)c2c1C(c1ccccc1Cl)C1=C(N2)c2ccccc2C1=O` (stereo not drawn) here?
Answer: The Potency was inconclusive [inhibitor, partial curve].

Question: `COc1ccc(-c2c3c(=O)n(C)c(=O)n(C)c3cn2Cc2cccnc2)cc1` was tested. Which Potency did it give?
Answer: The Potency was inconclusive [inhibitor, single point].

Question: `CCOC(=O)C1=C(O)C(=O)N(Cc2ccccc2)CC1` was tested. Which “activity, negative = inhibition” value did it give?
Answer: Its value is inactive: -5.03%.

Question: For `CN(C)c1ccc(NC(=O)COC(=O)CCC(=O)c2ccc(F)cc2)cc1`, which Potency is on record?
Answer: The Potency was active: 10 µM.

Question: `O=C(COc1ccccc1O)Nc1ccccc1Cl` was tested. Which Potency did it give?
Answer: Its Potency is inconclusive [inhibitor, single point].

Question: How did the Potency turn out when `N#CCCn1c(=O)c(-c2cc(F)cc(F)c2)nc2cnc(Oc3cccc(Cl)c3)nc21` was run?
Answer: The Potency was inconclusive [inhibitor, partial curve].

Question: `CC1Cc2ccccc2N1C(=O)COc1nc2ccccc2nc1N1CCOCC1` (stereo not drawn) was tested. Which Potency did it give?
Answer: Its Potency is inconclusive [inhibitor, single point].

Question: `CN1/C(=C\C(=O)C[n+]2cccc(C(N)=O)c2)C(C)(C)c2ccccc21` was tested. Which “activity, negative = inhibition” value did it give?
Answer: Its value is inactive: 7.03%.

Question: Which Potency does the source give for `CC(C)N(Cc1nc(-c2ccc(Cl)cc2)no1)C(=O)/C=C/c1ccccc1` here?
Answer: Its Potency is inconclusive [inhibitor, single point].

Question: For `Clc1ccc(-n2nnc(-c3nccs3)n2)cc1Cl`, which Potency is on record?
Answer: The Potency was active: 25.1 µM.

Question: With `Cc1ccc(NC(=O)c2ccccc2NC(=O)CCC(=O)O)cc1` as the compound, how does the “activity, negative = inhibition” value read?
Answer: Its value is inactive: -1.05%.

Question: For `CCOc1ccc(NS(=O)(=O)c2ccc(NC(=S)NC(=O)C(C)C)cc2)cc1`, which Potency is on record?
Answer: Its Potency is inconclusive [inhibitor, single point].

Question: For `COC(=O)c1cc(-c2ccc(S(=O)(=O)N3CCCC3)cc2)c(C(F)(F)F)s1`, which Potency is on record?
Answer: Its Potency is inconclusive [inhibitor, partial curve].

Question: With `C=CCn1c(NC(=O)CC)c(C(=O)OCC)sc1=S` as the compound, how does the Potency read?
Answer: The Potency was inconclusive [inhibitor, single point].

Question: For `Oc1c(CN2CCc3ccccc3C2)cc(Cl)c2cccnc12`, which “activity, negative = inhibition” value is on record?
Answer: Its value is inactive: 1.01%.

Question: For `CCOC(=O)CN1C(=O)S/C(=C/c2ccc(OC)c([N+](=O)[O-])c2)C1=O`, which Potency is on record?
Answer: The Potency was active: 12.6 µM.

Question: With `COc1ccc(C(=O)NCCc2nnc(SCc3nc4ccccc4c(=O)[nH]3)n2C)cc1` as the compound, how does the Potency read?
Answer: The Potency was inconclusive [inhibitor, single point].

Question: `Cn1c(=O)c2c(nc(N/N=C/c3ccc(OC(=O)c4ccco4)cc3)n2Cc2ccccc2)n(C)c1=O` was tested. Which Potency did it give?
Answer: The Potency was inconclusive [inhibitor, partial curve].

Question: How did the “activity, negative = inhibition” value turn out when `Cc1nc(N2CCN(C)CC2)c2c(C)c(C(=O)Nc3ccc(F)cc3)sc2n1` was run?
Answer: The value was inactive: -6.7%.

Question: Which Potency does the source give for `O=C1c2ccccc2CC1Sc1nnc(-c2ccccn2)o1` (stereo not drawn) here?
Answer: Its Potency is active: 3.16 µM.

Question: How did the Potency turn out when `N#Cc1ccc(OCc2noc(-c3ccsc3)n2)cc1` was run?
Answer: Its Potency is inconclusive [inhibitor, single point].

Question: `CCn1cc(C(=O)OC)c(=O)c2ccc(C)nc21` was tested. Which “activity, negative = inhibition” value did it give?
Answer: The value was inactive: -0.0838%.

Question: For `Cc1ccc(-c2cc(C(=O)NCCCn3ccnc3)c3ccccc3n2)s1`, which Potency is on record?
Answer: Its Potency is inconclusive [inhibitor, partial curve].

Question: Which Potency does the source give for `COc1ccccc1NC(=S)Nc1cccc2cnccc12` here?
Answer: Its Potency is active: 25.1 µM.

Question: For `O=C(COc1ccccc1[N+](=O)[O-])N/N=C/C=C/c1ccco1`, which Potency is on record?
Answer: Its Potency is inconclusive [inhibitor, single point].

Question: `COc1ccccc1N=Cc1c(O)c2ccccc2oc1=O` was tested. Which Potency did it give?
Answer: The Potency was inconclusive [inhibitor, single point].

Question: How did the “activity, negative = inhibition” value turn out when `COc1cccc(C(=O)NCC2CCCO2)c1` (stereo not drawn) was run?
Answer: Its value is inactive: 0.972%.

Question: How did the Potency turn out when `N#CCCn1c(=O)c(-c2cc(F)cc(F)c2)nc2cnc(OCc3ccccc3)nc21` was run?
Answer: The Potency was inconclusive [inhibitor, partial curve].

Question: How did the Potency turn out when `Cn1c(=O)[nH]c(=O)c2c1nc(SCC(=O)Nc1ccccc1)n2Cc1ccccc1` was run?
Answer: Its Potency is inconclusive [inhibitor, partial curve].

Question: `COc1ccc(-c2nc3cnc(N(C)C)nc3n(C[C@H]3CCCO3)c2=O)cc1` was tested. Which Potency did it give?
Answer: Its Potency is inconclusive [inhibitor, partial curve].

Question: How did the Potency turn out when `CCOC(=O)c1ccc(NC(=O)CCS(=O)(=O)c2ccc(Br)s2)cc1` was run?
Answer: The Potency was inconclusive [inhibitor, single point].

Question: With `O=C(N/N=C/c1ccc2cccnc2c1)c1nc2ccccc2c(=O)[nH]1` as the compound, how does the Potency read?
Answer: The Potency was inconclusive [inhibitor, single point].

Question: For `Cc1sc(NC(=O)Cc2ccc3c(c2)OCO3)nc1-c1ccc2c(c1)CCN2C(=O)c1cccc(F)c1`, which Potency is on record?
Answer: Its Potency is inconclusive [inhibitor, single point].

Question: Which Potency does the source give for `Cc1nnc(NC(=O)c2cccc(F)c2)s1` here?
Answer: The Potency was inconclusive [inhibitor, single point].

Question: Which Potency does the source give for `CCOC(=O)c1ccc2c(c1)C1C=CCC1C(C(=O)O)N2` (stereo not drawn) here?
Answer: Its Potency is active: 17.8 µM.

Question: How did the “activity, negative = inhibition” value turn out when `CN(C(=O)CO/N=C/c1ccc(OC(F)F)cc1)C1CCS(=O)(=O)C1` (stereo not drawn) was run?
Answer: Its value is inactive: 7.74%.

Question: For `Cc1cccc2nc(Cn3c(=O)n(CCC(=O)NCc4ccco4)c(=O)c4sccc43)cc(=O)n12`, which Potency is on record?
Answer: Its Potency is inconclusive [inhibitor, single point].

Question: `Cc1nc2sc(C(=O)c3ccccc3)c(N)c2c(C)c1C` was tested. Which Potency did it give?
Answer: Its Potency is inconclusive [inhibitor, full curve].

Question: For `Cc1cccc(Cc2cnc(N3C(=N)SC(C)C3=O)s2)c1` (stereo not drawn), which “activity, negative = inhibition” value is on record?
Answer: Its value is inactive: 6.69%.

Question: With `O=C(OC(C(=O)NCc1ccc2c(c1)OCO2)c1ccncc1)c1ccc(Cl)nc1` (stereo not drawn) as the compound, how does the “activity, negative = inhibition” value read?
Answer: The value was inactive: 5.01%.

Question: With `Cc1cccc(N=Nc2c(C)[nH]n(C(N)=S)c2=O)c1C` as the compound, how does the Potency read?
Answer: The Potency was active: 17.8 µM.

Question: How did the Potency turn out when `CCn1c2ccccc2c2cc(/C=N/NC(=O)c3ccccc3C)ccc21` was run?
Answer: Its Potency is inconclusive [inhibitor, partial curve].

Question: Which Potency does the source give for `Cc1ccccc1CSc1ccc(-c2ccc3c(c2)OCO3)nn1` here?
Answer: The Potency was inconclusive [inhibitor, single point].

Question: `S=c1[nH]nc(-c2ccco2)n1-c1ccccc1Cl` was tested. Which Potency did it give?
Answer: Its Potency is inconclusive [inhibitor, single point].

Question: Which Potency does the source give for `COc1ccccc1C1C([N+](=O)[O-])=CC([N+](=O)[O-])=CN1C` (stereo not drawn) here?
Answer: The Potency was active: 12.6 µM.

Question: With `COc1ccc(/C=N/N=C2/CC(C)(C)Cc3n[nH]c(=O)cc32)cc1` as the compound, how does the Potency read?
Answer: The Potency was active: 28.2 µM.

Question: With `COc1ccc2occ(C(=O)c3ccccc3)c2c1` as the compound, how does the “activity, negative = inhibition” value read?
Answer: The value was inactive: -12%.

Question: For `Cc1ccc(NC(=O)CN(C)CC(=O)Nc2ccccc2-c2ccccc2)cc1`, which Potency is on record?
Answer: Its Potency is active: 14.1 µM.

Question: `O=C(NCCN1CCOCC1)c1cc(S(=O)(=O)NCCCN2CCCC2=O)ccc1Cl` was tested. Which “activity, negative = inhibition” value did it give?
Answer: The value was inactive: -1.06%.

Question: How did the Potency turn out when `O=C(O)CCN1CC2([N+](=O)[O-])C=CC(=O)C([N+](=O)[O-])(C1)C2CC(=O)c1ccccc1` (stereo not drawn) was run?
Answer: The Potency was inconclusive [inhibitor, single point].

Question: How did the Potency turn out when `COc1ccc(OC)c(C2=NOC(C(=O)NCc3ccco3)C2)c1` (stereo not drawn) was run?
Answer: The Potency was inconclusive [inhibitor, single point].

Question: With `CCOC(=O)C(NC(=O)c1ccc(Cl)cc1Cl)(Nc1ccc(C)cc1)C(F)(F)F` (stereo not drawn) as the compound, how does the “activity, negative = inhibition” value read?
Answer: The value was inactive: 4.59%.

Question: For `CCOC(=O)CN/C=C(\C#N)c1ccccc1`, which “activity, negative = inhibition” value is on record?
Answer: Its value is inactive: -6.66%.

Question: With `COc1ccc(C(=O)NCc2ccc3[nH]c(C)cc3c2)cc1OC` as the compound, how does the Potency read?
Answer: Its Potency is active: 20 µM.

Question: For `CCC(C(=O)NC(C)(C)C)N(Cc1ccco1)C(=O)Cn1nnc(-c2ccc(F)cc2)n1` (stereo not drawn), which “activity, negative = inhibition” value is on record?
Answer: The value was inactive: 16.4%.

Question: For `Cc1ccc(-c2nc3ccccc3s2)cc1NC(=O)c1ccc2c(c1)OCO2`, which Potency is on record?
Answer: The Potency was inconclusive [inhibitor, single point].

Question: With `CSc1nc(C)cc(SC(C(C)=O)C(=O)Nc2ccccc2)n1` (stereo not drawn) as the compound, how does the Potency read?
Answer: Its Potency is active: 15.8 µM.
